Out of some 220,000 compounds screened, about 5,700 (2.6%) were called active. This list was built around the results that the source calls inconclusive (neither active nor inactive); the mix of calls is not that of the screen. Calls come from the whole dose curve; as a rule, active = well fitted inhibition curve with a large enough effect; inconclusive = small, poorly fitted or top-dose-only effect; inactive = no such curve, though single readings can be large or run the other way. Potencies beside an inconclusive call are fits to weak or partial responses and may not hold up.
Target: Lysine-specific demethylase 5B (Homo sapiens) (UniProt Q9UGL1)
Assay: Primary screen for KDM5B Histone Demethylases FDH-coupled qHTS; note: nearly all actives have a fitted effect of over 70% in size; for activity change, negative = inhibition: 0% is about no effect
Settings: FDH-coupled NADH fluorescence (FDH is formaldehyde dehydrogenase); activity change, negative = inhibition: at 57.7 µM (top of the series) unless noted
Procedure, shortened: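 Coupled FDH/NAD⁺ fluorescence readout. KDM5BΔAP 200 nM final; compound titration, 10 min RT preincubation; substrate mix 12.5 µM H3K4me3, 25 µM 2-OG, 50 µM Fe(II), 100 µM ascorbate, 0.25 mM NAD⁺, 0.25 U/mL FDH; ΔRFU over 30 min.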
Potency is the fitted concentration of half-maximal effect; tags give direction and shape of the fitted curve.

UniProt Q9UGL1, sequence (Q9UGL1 whole entry, looked up): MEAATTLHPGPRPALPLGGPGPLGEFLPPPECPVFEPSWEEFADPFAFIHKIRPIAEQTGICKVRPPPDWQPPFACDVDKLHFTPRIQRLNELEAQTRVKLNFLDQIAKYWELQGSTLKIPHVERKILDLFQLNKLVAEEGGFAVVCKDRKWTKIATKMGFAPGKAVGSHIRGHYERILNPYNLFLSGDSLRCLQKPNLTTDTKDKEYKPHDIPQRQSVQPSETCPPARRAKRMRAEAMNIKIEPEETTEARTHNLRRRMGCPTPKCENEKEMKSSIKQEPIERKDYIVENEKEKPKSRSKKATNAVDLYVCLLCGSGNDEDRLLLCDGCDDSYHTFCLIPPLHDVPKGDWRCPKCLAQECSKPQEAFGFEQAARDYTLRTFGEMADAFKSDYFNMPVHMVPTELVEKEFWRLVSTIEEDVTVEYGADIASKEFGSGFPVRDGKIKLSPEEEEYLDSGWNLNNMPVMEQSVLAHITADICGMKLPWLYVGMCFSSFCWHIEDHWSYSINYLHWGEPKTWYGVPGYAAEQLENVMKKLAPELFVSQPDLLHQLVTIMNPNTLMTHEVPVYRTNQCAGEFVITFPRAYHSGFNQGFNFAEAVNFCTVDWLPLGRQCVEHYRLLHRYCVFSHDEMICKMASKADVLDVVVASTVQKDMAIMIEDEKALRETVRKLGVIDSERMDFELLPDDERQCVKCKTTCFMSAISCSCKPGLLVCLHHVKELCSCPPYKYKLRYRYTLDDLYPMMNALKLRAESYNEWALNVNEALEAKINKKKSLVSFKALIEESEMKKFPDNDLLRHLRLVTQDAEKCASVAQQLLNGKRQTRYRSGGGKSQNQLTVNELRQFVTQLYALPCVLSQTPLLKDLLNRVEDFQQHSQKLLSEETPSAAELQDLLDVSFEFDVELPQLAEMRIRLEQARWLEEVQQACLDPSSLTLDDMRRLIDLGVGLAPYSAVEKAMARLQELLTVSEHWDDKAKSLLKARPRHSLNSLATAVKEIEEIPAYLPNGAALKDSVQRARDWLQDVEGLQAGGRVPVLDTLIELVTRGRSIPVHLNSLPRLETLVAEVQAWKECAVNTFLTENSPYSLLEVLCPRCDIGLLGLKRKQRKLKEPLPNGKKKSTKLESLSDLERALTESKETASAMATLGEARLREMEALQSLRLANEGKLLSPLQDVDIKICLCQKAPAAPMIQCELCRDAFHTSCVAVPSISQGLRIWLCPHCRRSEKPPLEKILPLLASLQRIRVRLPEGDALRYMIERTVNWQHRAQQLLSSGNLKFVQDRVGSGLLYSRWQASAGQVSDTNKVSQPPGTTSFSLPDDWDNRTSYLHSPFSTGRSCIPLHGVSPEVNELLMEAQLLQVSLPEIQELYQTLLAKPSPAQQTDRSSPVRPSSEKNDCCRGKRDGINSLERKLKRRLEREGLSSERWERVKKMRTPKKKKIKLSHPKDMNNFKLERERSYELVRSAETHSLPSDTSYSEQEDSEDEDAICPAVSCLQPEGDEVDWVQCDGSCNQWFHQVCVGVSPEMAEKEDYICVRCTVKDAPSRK

Row | Compound | activity change, negative = inhibition | Potency
1 | CC(=O)Nc1scc(-c2cc(C)ccc2C)c1C#N | inactive: -19.7% | 
2 | O=C(N[C@@H]1CCC[C@@H]1C(=O)NCCc1ccccc1)c1ccncc1 | inactive: -10.3% | 
3 | COc1cccc(-c2cn3c(n2)N(C(=O)c2cccs2)CCC3)c1 |  | inconclusive: 28.2 µM [inhibitor, single point]
4 | COc1ccc(C(=O)N2C[C@@H]3C[C@H](C2)c2ccc(NS(=O)(=O)c4ccc(NC(C)=O)cc4)c(=O)n2C3)cc1 |  | inconclusive: 35.5 µM [inhibitor, partial curve, poor fit]
5 | COCCn1cc(CN2CCc3ccccc3C2)ccc1=O |  | inconclusive: 14.1 µM [inhibitor, partial curve]
6 | O=[S+]1([O-])NC2(CCN(Cc3ccccc3C(F)(F)F)C2)CNc2ccccc21 (stereo unspecified) |  | inconclusive: 25.1 µM [inhibitor, single point]
7 | CCC(C)NC(=O)C(NC(=O)c1cccc(OC)c1)C1CCN(C(=O)c2cccc(C)c2)CC1 (stereo unspecified) | inactive: 2.19% | 
8 | Cc1ccccc1C(=O)Nc1ccc2nc(Nc3cccc(C(F)(F)F)c3)cc(C)c2c1 |  | inconclusive: 35.5 µM [inhibitor, partial curve, poor fit]
9 | Cc1ccc(-c2ccccc2N)cc1 |  | inconclusive: 28.2 µM [inhibitor, partial curve, poor fit]
10 | O=C1CCN(S(=O)(=O)c2ccccc2)CCCN(C(=O)c2cc3ccccc3[nH]2)CCN1 |  | inconclusive: 22.4 µM [inhibitor, partial curve, poor fit]
11 | COc1cc(C(=O)Nc2ccc3c(c2)nc2n3CCN(C(C)C)C2)cc(OC)c1OC |  | inconclusive: 17.8 µM [inhibitor, single point]
12 | FC(F)(F)c1cccc(N2CCN(Cc3nnc(-c4ccc5c(c4)OCO5)o3)CC2)c1 |  | inconclusive: 39.8 µM [inhibitor, single point]
13 | O=C1NC2(Cc3ccccc31)CN(CC1CCNC1)C2 (stereo unspecified) |  | inconclusive: 25.1 µM [inhibitor, full curve]
14 | COCCNC(=O)C1(C)CCc2cnc(NCc3ccccc3)nc21 (stereo unspecified) |  | active: 35.5 µM
15 | CC1(c2ccccc2)N(Cc2ccccc2)C(=O)OC12CCN(Cc1cccnc1)CC2 (stereo unspecified) | inactive: 9.14% [at 86.2 µM] | 
16 | Cn1ccc(CN2CCn3c(nn(-c4ccc(F)cc4F)c3=O)C2)c1 |  | inconclusive: 39.8 µM [inhibitor, single point]
17 | Cc1ccc(C(=O)N[C@@H]2CN(C)C[C@H]2CN(C)C)c(C)c1 |  | inconclusive: 17.8 µM [inhibitor, partial curve, poor fit]
18 | COc1ccc(NC(=O)C(C)n2nnc3sc(-c4ccccc4)cc3c2=O)cc1Cl (stereo unspecified) |  | inconclusive: 35.5 µM [inhibitor, single point]
19 | COc1c(C)cnc(CN2CCN(C(C(=O)O)c3c[nH]c4ccc(Br)cc34)CC2)c1C (stereo unspecified) | inactive: 9.16% | 
20 | FC(F)(F)c1cccc(-c2nnn3c2nc(NC2CCCCC2)c2ccccc23)c1 |  | inconclusive: 31.6 µM [inhibitor, partial curve, poor fit]
21 | Cc1cccc(N2CCN(C(=O)Cn3cnc4sc(C)c(S(=O)(=O)N5CCN(c6ncccn6)CC5)c4c3=O)CC2C)c1 (stereo unspecified) |  | inconclusive: 22.4 µM [inhibitor, single point]

Row | Compound | activity change, negative = inhibition | Potency
22 | COc1ccc(Cl)cc1C(=O)N1CCC(c2n[nH]c(=O)n2-c2ccccc2)CC1 | inactive: -11.1% | 
23 | CCOC(=O)c1cc(-c2ccc(S(=O)(=O)Nc3cccc(Cl)c3C)s2)on1 | inactive: 5.08% | 
24 | CN1CCN(c2nc3c(s2)CN(C(=O)c2ccnn2C)CC3)CC1 |  | inconclusive: 35.5 µM [inhibitor, partial curve, poor fit]
25 | COCCn1c(SC)nc2c1c(=O)[nH]c(=O)n2C | inactive: -5.04% | 
26 | Brc1ccc(-c2ccnc3nc(-c4ccco4)nn23)s1 |  | active: 28.2 µM
27 | CN(C)C[C@@H]1CN(C2CCOCC2)C[C@H]1NC(=O)c1n[nH]c2ccccc12 |  | active: 22.4 µM
28 | Nc1ncc(C(=O)N2CCC3(CC2)[C@H](O)C[C@@H]3O)c(C(F)(F)F)n1 |  | inconclusive: 14.1 µM [inhibitor, partial curve, poor fit]
29 | CCN(CC)C(=O)c1cccnc1-c1nc2ccccc2s1 |  | inconclusive: 39.8 µM [inhibitor, single point]
30 | Cc1ccc(CNC(=O)CCCN2C(=O)c3cccnc3Oc3ccc(Cl)cc32)cc1 |  | inconclusive: 1.41 µM [inhibitor, full curve, poor fit]
31 | C[C@@H](NC(=O)c1cnccn1)c1c(-c2ccc(F)cc2)noc1C(=O)O |  | inconclusive: 28.2 µM [inhibitor, partial curve]
32 | Cc1cccc(N(C)c2nc3ccc(C)cc3n3cnnc23)c1 |  | inconclusive: 31.6 µM [inhibitor, single point]
33 | CCCCOc1ccccc1C(=O)Nc1nonc1-c1ccccc1 |  | inconclusive: 1.12 µM [inhibitor, partial curve, poor fit]
34 | CCN1c2cc(C(=O)Nc3ccc(OC(F)(F)F)cc3)ccc2C(=O)N2CCCCCC21 (stereo unspecified) |  | inconclusive: 31.6 µM [inhibitor, partial curve, poor fit]
35 | CN(Cc1cccc(C(F)(F)F)c1)C(=O)c1ccccc1Cl | inactive: -10.5% [at 86.2 µM] | 
36 | CCn1c(CNC(=O)c2ccc3c(c2)OCO3)nnc1SCC(=O)c1ccc(OC)cc1 | inactive: -8.61% | 
37 | Cc1nc(C)c(-c2csc(Nc3ccccc3C)n2)s1 |  | inconclusive: 31.6 µM [inhibitor, single point]
38 | O=C1CCCC2=C1C(c1ccc(OC(F)F)cc1)C=C1c3cc4c(cc3CCN12)OCCCO4 (stereo unspecified) |  | inconclusive: 28.2 µM [inhibitor, single point]
39 | O=C(C1CCCCC1)N1CC[C@H](c2nc3ccc(C(F)(F)F)cc3[nH]2)C1 | inactive: -9.41% [at 86.2 µM] | 
40 | CCn1ccc2cc(S(=O)(=O)N3CCCN(C(=O)Nc4ccc(C)c(F)c4)CC3)ccc21 |  | inconclusive: 1.78 µM [inhibitor, full curve, poor fit]
41 | NC(=O)Cc1c[nH]c2ncc(-c3cccc(OC(F)(F)F)c3)cc12 |  | inconclusive: 39.8 µM [inhibitor, partial curve, poor fit]
